Measurements from the supplement of paper PMC11125491.
± gives the standard deviation of the averaged measurements. Growth of baker's yeast expressing single-residue variants of Pneumocystis jirovecii dihydrofolate reductase in 8.8 or 44 µM methotrexate (about 75% and 90% inhibition of the wild type). Selection coefficient per generation; 0 = like wild type, above 0 = less sensitive, below 0 = more sensitive or loss of function. No active / inactive call per row; the paper calls resistant above 0.220 (8.8 µM) or 0.243 (44 µM) together with a significance test. At 44 µM about 15% of codons end with one read or none, so the lowest values are floors (replicate rank correlation 0.74; 0.94 at 8.8 µM).

B1: UniProt A0EPZ9; numbered along this chain (parent)
chain: MDWQKSLTLIVALTLSRGIGLKNDLPWKLKSDMMFFSRVTSGLLVTRSTGQMNVVLMGRKTWESLPAHSRPLKNRINVVISRQEVLDLGGGAYHARSLDDALALLSQIYDSTSKIQLNRVFVIGGGELCKAAMEHSRLNRIIATVIHNEVDCDVFFPIDFRSSQSCLPWRKQDHSVLEAWVGSKVPQGKINENGFIYEFEMWIRDI

Variants of: B1
Test: selection coefficient against synonymous wild-type codons (log2 per generation); higher = faster growth than wild type
Settings: with Saccharomyces cerevisiae carrying the variant on a plasmid
Procedure: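 Pooled growth of yeast carrying single-residue variants of P. jirovecii dihydrofolate reductase (own DFR1 gene intact), two passages at 30 °C, three cultures, sequenced before and after. Codons with under 15 starting reads are left out; codons of one change are averaged.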

Variant | selection coefficient against synonymous wild-type codons (log2) (methotrexate 8.8 µM) | selection coefficient against synonymous wild-type codons (log2) (methotrexate 44 µM)
L21I | -0.0207 ± 0.083 | 0.0833 ± 0.09
L21K | 0.103 ± 0.025 | 0.136 ± 0.045
L21M | 0.137 ± 0.035 | 0.173 ± 0.047
L21N | 0.0196 ± 0.19 | 0.0464 ± 0.053
L21P | -0.199 ± 0.097 | -0.1 ± 0.097
L21Q | 0.319 ± 0.035 | 0.274 ± 0.037
L21R | 0.24 ± 0.17 | 0.247 ± 0.19
L21S | 0.225 ± 0.056 | 0.184 ± 0.1
L21T | 0.19 ± 0.03 | 0.146 ± 0.13
L21V | 0.135 ± 0.014 | 0.112 ± 0.056
L21W | -0.0356 ± 0.027 | -0.00708 ± 0.02
L21Y | -0.0502 ± 0.021 | -0.0193 ± 0.064
K22A | 0.121 ± 0.036 | 0.141 ± 0.15
K22C | 0.0165 ± 0.016 | -0.00397 ± 0.061
K22D | 0.217 ± 0.052 | 0.2 ± 0.1
K22E | 0.272 ± 0.022 | 0.244 ± 0.019
K22F | -0.107 ± 0.053 | 0.0282 ± 0.029
K22G | 0.0944 ± 0.023 | 0.0251 ± 0.032
K22H | 0.0124 ± 0.055 | -0.137 ± 0.053
K22I | 0.0866 ± 0.022 | 0.0956 ± 0.097
K22L | -0.138 ± 0.053 | -0.129 ± 0.14
K22M | -0.0699 ± 0.084 | -0.123 ± 0.2
K22N | 0.0158 ± 0.073 | 0.0766 ± 0.1
K22P | -0.309 ± 0.069 | -0.227 ± 0.12

Variant | selection coefficient against synonymous wild-type codons (log2) (methotrexate 8.8 µM) | selection coefficient against synonymous wild-type codons (log2) (methotrexate 44 µM)
K22Q | 0.0332 ± 0.052 | -0.0191 ± 0.059
K22R | -0.0812 ± 0.045 | -0.0357 ± 0.11
K22S | 0.14 ± 0.054 | 0.139 ± 0.092
K22T | 0.234 ± 0.021 | 0.182 ± 0.054
K22V | 0.237 ± 0.042 | 0.294 ± 0.035
K22W | -0.218 ± 0.014 | -0.115 ± 0.13
K22Y | -0.126 ± 0.068 | -0.0857 ± 0.072
N23A | 0.00316 ± 0.033 | -0.00545 ± 0.024
N23C | 0.0125 ± 0.062 | -0.101 ± 0.18
N23D | 0.296 ± 0.05 | 0.329 ± 0.044
N23E | 0.223 ± 0.017 | 0.199 ± 0.081
N23F | -0.179 ± 0.048 | -0.0304 ± 0.023
N23G | -0.0801 ± 0.043 | -0.0895 ± 0.12
N23H | 0.076 ± 0.066 | 0.0239 ± 0.047
N23I | -0.039 ± 0.057 | 0.0142 ± 0.083
N23K | -0.0433 ± 0.076 | -0.0133 ± 0.051
N23L | -0.124 ± 0.072 | -0.156 ± 0.11
N23M | -0.0901 ± 0.085 | -0.118 ± 0.13
N23P | -0.0619 ± 0.046 | -0.113 ± 0.097
N23Q | -0.0221 ± 0.089 | -0.0394 ± 0.062
N23R | -0.149 ± 0.078 | -0.102 ± 0.1
N23S | -0.0377 ± 0.038 | -0.0181 ± 0.065
N23T | 0.0305 ± 0.037 | 0.0699 ± 0.04
N23V | 0.0151 ± 0.048 | 0.0776 ± 0.053

Variant | selection coefficient against synonymous wild-type codons (log2) (methotrexate 8.8 µM) | selection coefficient against synonymous wild-type codons (log2) (methotrexate 44 µM)
N23W | 0.126 ± 0.024 | 0.00408 ± 0.14
N23Y | 0.0916 ± 0.045 | 0.153 ± 0.07
D24A | -0.0307 ± 0.066 | 0.0715 ± 0.1
D24C | -0.203 ± 0.19 | -0.104 ± 0.13
D24E | -0.0236 ± 0.024 | 0.00268 ± 0.071
D24F | -0.139 ± 0.045 | -0.175 ± 0.16
D24G | -0.133 ± 0.081 | -0.0628 ± 0.13
D24H | 0.29 ± 0.085 | 0.261 ± 0.053
D24I | -0.0997 ± 0.054 | -0.0459 ± 0.13
D24K | -0.0915 ± 0.074 | -0.0367 ± 0.12
D24L | -0.0319 ± 0.13 | -0.0397 ± 0.14
D24M | -0.289 ± 0.17 | -0.186 ± 0.029
D24N | -0.219 ± 0.14 | -0.0939 ± 0.17
D24P | -0.422 ± 0.13 | -0.216 ± 0.077
D24Q | 0.298 ± 0.054 | 0.289 ± 0.1
D24R | 0.0155 ± 0.11 | 0.0209 ± 0.15
D24S | -0.0429 ± 0.084 | 0.0616 ± 0.054
D24T | 0.00617 ± 0.078 | 0.0264 ± 0.16
D24V | -0.0749 ± 0.061 | -0.0635 ± 0.11
D24W | -0.271 ± 0.11 | -0.285 ± 0.051
D24Y | -0.103 ± 0.041 | -0.19 ± 0.15
L25A | -0.183 ± 0.095 | -0.18 ± 0.16
L25C | -0.156 ± 0.049 | -0.13 ± 0.089
L25D | -0.152 ± 0.022 | -0.147 ± 0.22

Variant | selection coefficient against synonymous wild-type codons (log2) (methotrexate 8.8 µM) | selection coefficient against synonymous wild-type codons (log2) (methotrexate 44 µM)
L25E | 0.351 ± 0.028 | 0.332 ± 0.061
L25F | -0.264 ± 0.043 | -0.0854 ± 0.09
L25G | -0.289 ± 0.061 | -0.184 ± 0.052
L25H | -0.213 ± 0.075 | -0.188 ± 0.06
L25I | 0.0443 ± 0.025 | 0.0629 ± 0.11
L25K | -0.561 ± 0.15 | -0.33 ± 0.066
L25M | 0.125 ± 0.042 | 0.0955 ± 0.014
L25N | 0.0485 ± 0.0083 | 0.037 ± 0.047
L25P | -0.181 ± 0.09 | -0.168 ± 0.11
L25Q | 0.455 ± 0.023 | 0.462 ± 0.015
L25R | 0.426 ± 0.064 | 0.547 ± 0.092
L25S | -0.039 ± 0.091 | -0.0375 ± 0.11
L25T | -0.0748 ± 0.075 | -0.0475 ± 0.053
L25V | 0.124 ± 0.028 | 0.0664 ± 0.058
L25W | -0.255 ± 0.073 | -0.154 ± 0.13
L25Y | -0.113 ± 0.04 | -0.175 ± 0.14
P26A | -0.0539 ± 0.093 | 0.0154 ± 0.052
P26C | 0.119 ± 0.05 | 0.165 ± 0.068
P26D | -0.308 ± 0.12 | -0.0617 ± 0.071
P26E | -0.0643 ± 0.046 | 0.112 ± 0.28
P26F | -0.585 ± 0.048 | -0.271 ± 0.13
P26G | 0.184 ± 0.038 | 0.17 ± 0.053
P26H | -0.27 ± 0.18 | -0.0212 ± 0.061
P26I | -0.233 ± 0.12 | -0.00541 ± 0.12

Variant | selection coefficient against synonymous wild-type codons (log2) (methotrexate 8.8 µM) | selection coefficient against synonymous wild-type codons (log2) (methotrexate 44 µM)
P26K | -0.251 ± 0.019 | -0.0282 ± 0.1
P26L | -0.327 ± 0.12 | -0.232 ± 0.15
P26M | -0.325 ± 0.14 | -0.15 ± 0.11
P26N | 0.125 ± 0.039 | 0.0213 ± 0.08
P26Q | 0.0428 ± 0.047 | 0.0399 ± 0.046
P26R | -0.0186 ± 0.052 | 0.0447 ± 0.11
P26S | 0.123 ± 0.053 | 0.113 ± 0.1
P26T | 0.131 ± 0.046 | 0.151 ± 0.063
P26V | -0.0874 ± 0.046 | -0.0361 ± 0.068
P26W | -0.586 ± 0.032 | -0.229 ± 0.12
P26Y | -0.354 ± 0.18 | -0.205 ± 0.12
W27A | 0.0849 ± 0.044 | 0.0545 ± 0.1
W27C | 0.0555 ± 0.027 | 0.122 ± 0.047
W27D | -0.405 ± 0.064 | -0.292 ± 0.088
W27E | -0.355 ± 0.065 | -0.224 ± 0.14
W27F | -0.206 ± 0.04 | -0.221 ± 0.11
W27G | 0.0431 ± 0.087 | 0.0832 ± 0.076
W27H | 0.383 ± 0.028 | 0.412 ± 0.05
W27I | -0.123 ± 0.07 | -0.19 ± 0.15
W27K | -0.405 ± 0.17 | -0.181 ± 0.062
